From patent US20210130436A1 (published 2021)

Columns and labels:
human PD-L1 [1] = target: T1, human PD-L1 (human, UniProt Q9NZQ7); test: flow cytometry; PD-L1 MFI over CD28 MFI at 33.3 nM
T1 construct: also called huPD-L1; CD274

human CTLA4 [2] = target: T2, human CTLA4 (human, UniProt P16410 36-223); test: flow cytometry, CHO cells expressing huCTLA4; MFI against WT CD80 IgV-Fc
T2 construct: also called huCTLA4

human CTLA4 [3] = target: T2, human CTLA4; test: flow cytometry, CHO cells expressing huCTLA4
human CD28 [4] = target: T3, human CD28 (human, UniProt P10747 19-220); test: flow cytometry, Jurkat/IL2 reporter cells (endogenous CD28)
human PD-L1 [5] = target: T1, human PD-L1; test: flow cytometry, CHO cells expressing huPD-L1
human PD-L1 [6] = target: T1, human PD-L1; test: flow cytometry, CHO cells expressing huPD-L1; MFI against WT CD80 IgV-Fc
human CD28 [7] = target: T3, human CD28; test: flow cytometry, Jurkat/IL2 reporter cells (endogenous CD28); MFI against WT CD80 IgV-Fc
human PD-L1 [8] = target: T4, human PD-L1 (human, UniProt Q9NZQ7); test: flow cytometry, MFI on CHO/huPD-L1 cells divided by MFI on Jurkat cells (CD28), 33.3 nM
T4 construct: whole, on cells; CHO cells stably expressing huPD-L1; also called huPD-L1

human CTLA-4 [9] = target: T5, human CTLA-4 (human, UniProt P16410 36-223); test: flow cytometry, CHO cells stably expressing huCTLA-4, 33.3 nM Fc fusion, PE anti-human Fc
T5 construct: whole, on cells; CHO cells stably expressing huCTLA4; also called huCTLA4

human CTLA-4 [10] = target: T5, human CTLA-4; test: flow cytometry MFI relative to WT CD80 IgV-Fc, CHO/huCTLA-4 cells, 33.3 nM
human CD28 [11] = target: T6, human CD28 (human, UniProt P10747 19-220); test: flow cytometry, Jurkat/IL2 reporter cells (endogenous CD28), 33.3 nM Fc fusion, PE anti-human Fc
T6 construct: whole, on cells; Jurkat/IL2 reporter cells, which endogenously express CD28

human PD-L1 [12] = target: T4, human PD-L1; test: flow cytometry, CHO cells stably expressing huPD-L1, 33.3 nM Fc fusion, PE anti-human Fc
human CD28 [13] = target: T6, human CD28; test: flow cytometry MFI relative to WT CD80 IgV-Fc, Jurkat cells (CD28), 33.3 nM
human PD-L1 [14] = target: T4, human PD-L1; test: flow cytometry MFI relative to WT CD80 IgV-Fc, CHO/huPD-L1 cells, 33.3 nM

T5 sequence (P16410 36-223): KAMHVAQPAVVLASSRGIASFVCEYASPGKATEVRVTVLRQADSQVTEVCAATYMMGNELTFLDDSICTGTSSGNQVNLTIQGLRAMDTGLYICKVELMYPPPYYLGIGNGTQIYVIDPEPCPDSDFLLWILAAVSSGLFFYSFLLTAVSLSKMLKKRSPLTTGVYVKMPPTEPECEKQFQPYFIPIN
T2 sequence (P16410 36-223): as above

Binder | Ratio of PDL1:CD28 (human PD-L1 [1]) | Fold change to WT CD80 (human CTLA4 [2]) | MFI at 33.3 nM (human CTLA4 [3]) | MFI at 33.3 nM (human CD28 [4]) | MFI at 33.3 nM (human PD-L1 [5]) | Fold change to WT CD80 (human PD-L1 [6]) | Fold change to WT CD80 (human CD28 [7]) | Ratio of PDL1:CD28 (human PD-L1 [8]) | MFI at 33.3 nM (human CTLA-4 [9]) | Fold change to WT CD80 (human CTLA-4 [10]) | MFI at 33.3 nM (human CD28 [11]) | MFI at 33.3 nM (human PD-L1 [12]) | Fold change to WT CD80 (human CD28 [13]) | Fold change to WT CD80 (human PD-L1 [14])
variant CD80 IgV-Fc A26E/E35D/M47L/V68M/A71G/D90G (Fc fusion, not shown: small tags and cut ends; a dimerising Fc or GST) not shown | 13.7 ratio | 16 fold | 21700 MFI | 2210 MFI | 30200 MFI | 693 fold | 50.4 fold | – | – | – | – | – | – | –
variant CD80 IgV-Fc H18Y/A26E/V68M/A71G/D90G (Fc fusion, not shown: small tags and cut ends; a dimerising Fc or GST) not shown | 10.4 ratio | 13.5 fold | 18300 MFI | 2680 MFI | 27900 MFI | 639 fold | 61.1 fold | – | – | – | – | – | – | –
variant CD80 IgV-Fc H18Y/A26E/E35D/A71G/D90G (Fc fusion, not shown: small tags and cut ends; a dimerising Fc or GST) not shown | 13.8 ratio | -0.1 fold | – | 1080 MFI | 14800 MFI | 340 fold | 24.5 fold | – | – | – | – | – | – | –
variant CD80 IgV-Fc H18Y/E35D/M47L/V68M/A71G/D90G (Fc fusion, not shown: small tags and cut ends; a dimerising Fc or GST) not shown | – | – | 19900 MFI | – | 29900 MFI | – | – | – | – | – | – | – | – | –
variant CD80 IgV-Fc H18Y/A26E/E35D/V68M/A71G/D90G (Fc fusion, not shown: small tags and cut ends; a dimerising Fc or GST) not shown | 16.3 ratio | 17.2 fold | 23400 MFI | 1760 MFI | 28700 MFI | 658 fold | 40 fold | – | – | – | – | – | – | –
variant CD80 IgV-Fc H18Y/A26E/M47L/V68M/D90G (Fc fusion, not shown: small tags and cut ends; a dimerising Fc or GST) not shown | 737 ratio | 21.1 fold | 28600 MFI | – | 23600 MFI | 541 fold | 0.7 fold | – | – | – | – | – | – | –
variant CD80 IgV-Fc H18Y/E35D/M47L/V68M/D90G (Fc fusion, not shown: small tags and cut ends; a dimerising Fc or GST) not shown | – | – | – | 3390 MFI | 27400 MFI | – | – | – | – | – | – | – | – | –
variant CD80 IgV-Fc H18Y/A26E/E35D/M47L/D90G (Fc fusion, not shown: small tags and cut ends; a dimerising Fc or GST) not shown | 9.2 ratio | 14.5 fold | 19700 MFI | 1380 MFI | 12700 MFI | 291 fold | 31.4 fold | – | – | – | – | – | – | –
variant CD80 IgV-Fc A26E/E35D/V68M/A71G/D90G (Fc fusion, not shown: small tags and cut ends; a dimerising Fc or GST) not shown | 12.6 ratio | 17.1 fold | 23300 MFI | 2100 MFI | 26500 MFI | 608 fold | 47.9 fold | – | – | – | – | – | – | –
variant CD80 IgV-Fc H18Y/A26E/M47L/A71G/D90G (Fc fusion, not shown: small tags and cut ends; a dimerising Fc or GST) not shown | – | – | 25400 MFI | 2050 MFI | – | – | – | – | – | – | – | – | – | –
variant CD80 IgV-Fc H18Y/A26E/E35D/V68M/A71G (Fc fusion, not shown: small tags and cut ends; a dimerising Fc or GST) not shown | 69.7 ratio | 14.3 fold | 19400 MFI | 394 MFI | 27500 MFI | 630 fold | 9 fold | – | – | – | – | – | – | –
variant CD80 IgV-Fc H18Y/E35D/M47L/V68M/A71G (Fc fusion, not shown: small tags and cut ends; a dimerising Fc or GST) not shown | 32.7 ratio | 17.4 fold | 23700 MFI | 928 MFI | 30400 MFI | 697 fold | 21.1 fold | – | – | – | – | – | – | –
variant CD80 IgV-Fc H18Y/A26E/E35D/M47L/V68M (Fc fusion, not shown: small tags and cut ends; a dimerising Fc or GST) not shown | – | – | 20000 MFI | – | 24700 MFI | – | – | – | – | – | – | – | – | –
variant CD80 IgV-Fc H18Y/A26E/E35D/M47L/V68M/D90G (Fc fusion, not shown: small tags and cut ends; a dimerising Fc or GST) not shown | 9.4 ratio | 18.3 fold | 24900 MFI | 2680 MFI | 25200 MFI | 578 fold | 60.9 fold | – | – | – | – | – | – | –
variant CD80 IgV-Fc H18Y/A26E/E35D/V68M/D90G (Fc fusion, not shown: small tags and cut ends; a dimerising Fc or GST) not shown | 9 ratio | 14.2 fold | 19300 MFI | 2580 MFI | 23200 MFI | 532 fold | 58.9 fold | – | – | – | – | – | – | –
variant CD80 IgV-Fc H18Y/A26E/E35D/M47L/A71G (Fc fusion, not shown: small tags and cut ends; a dimerising Fc or GST) not shown | 44.6 ratio | 14.2 fold | 19400 MFI | 379 MFI | 16900 MFI | 387 fold | 8.6 fold | – | – | – | – | – | – | –
variant CD80 IgV-Fc (inert) H18A/A26N/E35D/M47L/V68M/A71G/D90G (Fc fusion, not shown: inert human IgG1 Fc) not shown | – | – | – | – | – | – | – | 7.4 ratio | 21400 MFI | 15.4 fold | 4910 MFI | 36300 MFI | 48.2 fold | 220 fold
variant CD80 IgV-Fc (inert) H18Y/A26Q/E35D/M47T/V68M/A71G/D90G (Fc fusion, not shown: inert human IgG1 Fc) not shown | – | – | – | – | – | – | – | 3.6 ratio | 16700 MFI | 12 fold | 6730 MFI | 24400 MFI | 66 fold | 148 fold
variant CD80 IgV-Fc (inert) H18A/A26P/E35D/M47L/V68M/A71G/D90G (Fc fusion, not shown: inert human IgG1 Fc) not shown | – | – | – | – | – | – | – | 7.1 ratio | 23800 MFI | 17.2 fold | 4730 MFI | 33400 MFI | 46.4 fold | 203 fold
variant CD80 IgV-Fc (inert) H18Y/E35D/M47V/V68M/A71G/D90G (Fc fusion, not shown: inert human IgG1 Fc) not shown | – | – | – | – | – | – | – | 7.7 ratio | 17200 MFI | 12.4 fold | 6790 MFI | 52200 MFI | 66.6 fold | 316 fold
variant CD80 IgV-Fc (inert) H18V/A26S/E35D/M47L/V68M/A71G/D90G (Fc fusion, not shown: inert human IgG1 Fc) not shown | – | – | – | – | – | – | – | 9.2 ratio | 24900 MFI | 18 fold | 8060 MFI | 73900 MFI | 79 fold | 448 fold
